Source: the supplement of paper PMC10126150
Values marked as one replicate rest on one cluster of the flow cell; about a third of the high ones do not repeat.

Test system: ATP
Assay: switch fluorescence ratio, 500 uM ATP over buffer (Cy3 cluster intensity, sum of 5 cycles each) (fold (ratio)); higher = stronger signal-on switching upon ATP binding; sequences stand for … in TCGTCGGCAGCGTCAGATGTGTATAAGAGACAGTTTTTTTTTTTTTTTTTTTTTTTTT…TC
Conditions: aptamer strand: ATP DNA aptamer (quencher-CACCTGGGGGAGTATTGCGGAGGAAGG + anchor), 100 nM annealed; ATP concentration: 500 uM; one replicate
In short: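 The fluorescence ratio divides summed target-cycle Cy3 intensity by summed buffer-cycle Cy3 intensity for each cluster and is averaged per switch-domain sequence. Cy3-labelled switching-strand clusters on a modified Illumina MiSeq flow-cell were annealed to 100 nM quencher-labelled ATP aptamer, then imaged in selection buffer and again after 15 min with 500 uM ATP at 22 °C. Five such cycles were run, with NaOH stripping and re-annealing between them, and clusters outside 100-1000 RFU were excluded.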
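Note: ATP exposure 15 min at 22 °C before imaging.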

TGTGACAGCC was tested, and the switch fluorescence ratio was 1.04.
Sequence TTCATCTGGA has a switch fluorescence ratio of 1.1.
Sequence CACAGGGTGG has a switch fluorescence ratio of 0.984.
Work on TATAGTCGG yielded a switch fluorescence ratio of 0.976.
TGGCGCTCGG showed a switch fluorescence ratio of 1.
GGAACTAAAT gave a switch fluorescence ratio of 1.01.
For TGATCCGGAC, the switch fluorescence ratio was 0.991.
ATGTGTTTCC was tested, and the switch fluorescence ratio was 1.06.
In the case of CTCTGCGGAG, the switch fluorescence ratio is reported as 1.2.
TGGGTCAGAG gave a switch fluorescence ratio of 0.944.
GACACCGACC gave a switch fluorescence ratio of 1.8.
Sequence TCGCGGATTC has a switch fluorescence ratio of 1.11.
In the case of TTGAATCTT, the switch fluorescence ratio is reported as 0.971.
With TTGTGCAGT the switch fluorescence ratio was 1.07.
With AGGATGGTAG the switch fluorescence ratio was 0.987.
CCAAGAGGGT was tested, and the switch fluorescence ratio was 1.03.
With CTTAAACTCT the switch fluorescence ratio was 1.03.
ATGTCCTCAT was tested, and the switch fluorescence ratio was 0.943.
For ATCACTCATG, the switch fluorescence ratio was 0.997.
For GGTGGGAAAT, the switch fluorescence ratio was 1.1.
GAGCATTTGT showed a switch fluorescence ratio of 1.02.
AGGTTTGATG gave a switch fluorescence ratio of 0.961.
With CTTCGATTGA the switch fluorescence ratio was 1.02.
Work on ACCGGACGTC yielded a switch fluorescence ratio of 1.13.
With CTACTCATGT the switch fluorescence ratio was 1.03.
Sequence CGCGCACTGA has a switch fluorescence ratio of 1.08.
CCAAGTTATT showed a switch fluorescence ratio of 0.994.
GCCGATCTAC was tested, and the switch fluorescence ratio was 1.05.
For AAGACTGGAC, the switch fluorescence ratio was 1.09.
GATGTAGACA showed a switch fluorescence ratio of 0.999.
For GATTCATAG, the switch fluorescence ratio was 0.992.
CCCAGTAGAC was tested, and the switch fluorescence ratio was 2.32.
TCATTGATAC showed a switch fluorescence ratio of 1.09.
In the case of CGCGGGGGAA, the switch fluorescence ratio is reported as 1.05.
Work on GACATTGCCA yielded a switch fluorescence ratio of 1.01.
ACGGTGCAGC gave a switch fluorescence ratio of 1.07.
Sequence CGAGATTGCG has a switch fluorescence ratio of 0.957.
Sequence TAATGTTAG has a switch fluorescence ratio of 0.989.
CTGTGTACGA showed a switch fluorescence ratio of 1.02.
With GTGGAATCAC the switch fluorescence ratio was 1.01.
In the case of TATCTTTTCC, the switch fluorescence ratio is reported as 1.02.
CAGATAGTTT showed a switch fluorescence ratio of 0.987.
In the case of GGCAGGAGCA, the switch fluorescence ratio is reported as 1.04.
In the case of ATTAAGGCTT, the switch fluorescence ratio is reported as 1.03.
In the case of GTACTAAACT, the switch fluorescence ratio is reported as 1.11.
For GGGTGTGGTG, the switch fluorescence ratio was 0.886.
CCATGCTCCG gave a switch fluorescence ratio of 1.35.
GGGTGCTGAA gave a switch fluorescence ratio of 0.979.
With TACGGTCTCC the switch fluorescence ratio was 1.
In the case of CATGAATGCT, the switch fluorescence ratio is reported as 0.969.
With GATGATTGGG the switch fluorescence ratio was 1.01.
In the case of TAGTGCAAGC, the switch fluorescence ratio is reported as 1.01.
For ACAATTAGTG, the switch fluorescence ratio was 1.02.
Work on TTCCTATGAC yielded a switch fluorescence ratio of 1.01.
TTGGAAGGCC gave a switch fluorescence ratio of 0.953.
With ATGTACTTA the switch fluorescence ratio was 1.12.
With CCAACAACCC the switch fluorescence ratio was 1.08.
For ATATAGCGGT, the switch fluorescence ratio was 0.848.
CGTGAGCACG showed a switch fluorescence ratio of 1.01.
Sequence ACATGCTCGA has a switch fluorescence ratio of 1.06.
GTTTGGTCTG showed a switch fluorescence ratio of 0.993.
Sequence GACTGTTCAT has a switch fluorescence ratio of 1.01.
In the case of CCGAAAAGG, the switch fluorescence ratio is reported as 1.08.
With GTACCCCCGT the switch fluorescence ratio was 1.48.
CCTTGGCACG was tested, and the switch fluorescence ratio was 1.57.
Work on GAGTGGGATA yielded a switch fluorescence ratio of 0.962.
For ACAGTTGGTA, the switch fluorescence ratio was 1.03.
TGGGGACGCC gave a switch fluorescence ratio of 0.947.
Work on GATAGGCCTC yielded a switch fluorescence ratio of 1.05.
Sequence ATTCGGCACG has a switch fluorescence ratio of 1.02.
CAGTCATGCG was tested, and the switch fluorescence ratio was 0.921.
Sequence TACGTTTTTA has a switch fluorescence ratio of 1.01.
For ACATCTGAGA, the switch fluorescence ratio was 0.997.
For CGGAAACAAG, the switch fluorescence ratio was 1.01.
TCAAATTGTG gave a switch fluorescence ratio of 1.02.
Work on GTGCTCCTGT yielded a switch fluorescence ratio of 1.01.
Work on GATGGGACGC yielded a switch fluorescence ratio of 1.03.
GTGTTTCCTC gave a switch fluorescence ratio of 1.06.
Work on TATGGAGGTA yielded a switch fluorescence ratio of 1.09.
Work on CATAAGCCCA yielded a switch fluorescence ratio of 0.994.
Work on GAGAGACACT yielded a switch fluorescence ratio of 0.978.
Sequence GTTGAAGAAT has a switch fluorescence ratio of 1.03.
Work on ACTTAGCCAA yielded a switch fluorescence ratio of 1.08.
CACCGGGTT gave a switch fluorescence ratio of 1.04.
Sequence CGCTTTTGAC has a switch fluorescence ratio of 1.51.
TGATTACATA was tested, and the switch fluorescence ratio was 1.01.
GTTTACTGCA was tested, and the switch fluorescence ratio was 1.01.
In the case of TACACGGTTG, the switch fluorescence ratio is reported as 0.995.
TGGCAATGGA was tested, and the switch fluorescence ratio was 1.03.
TTTTACAGT gave a switch fluorescence ratio of 0.99.
Sequence AGAATTTAAG has a switch fluorescence ratio of 1.03.
Sequence GCTACTCGTA has a switch fluorescence ratio of 1.03.
CGCCGGATAT showed a switch fluorescence ratio of 1.13.
In the case of TTATCCTTCT, the switch fluorescence ratio is reported as 1.16.
TCCTCGCAGG was tested, and the switch fluorescence ratio was 1.03.
Work on CGCCCTCACA yielded a switch fluorescence ratio of 1.17.
With TTATATTGCC the switch fluorescence ratio was 0.935.
AGCCCCGGGG gave a switch fluorescence ratio of 1.
With CCCTTCGTTG the switch fluorescence ratio was 0.951.
AGGAGTATT showed a switch fluorescence ratio of 1.
Sequence GTAATCTTGT has a switch fluorescence ratio of 1.02.
ATAGGATAAA gave a switch fluorescence ratio of 0.976.
For GCAATAGCTT, the switch fluorescence ratio was 1.09.
With CGTAGGCAGA the switch fluorescence ratio was 1.02.
Sequence CCGTGTGAGA has a switch fluorescence ratio of 1.
For CCAATGCCAC, the switch fluorescence ratio was 1.81.
GCATAGAGCC gave a switch fluorescence ratio of 0.986.
For GAGCATGGTT, the switch fluorescence ratio was 1.
With TCTGTCTACC the switch fluorescence ratio was 0.983.
In the case of TAACGCAAA, the switch fluorescence ratio is reported as 1.3.
In the case of ACATCCAGAC, the switch fluorescence ratio is reported as 1.15.
TTATTTACAA showed a switch fluorescence ratio of 1.01.
For TGTGAAGACG, the switch fluorescence ratio was 0.983.
In the case of TTAGATGTGA, the switch fluorescence ratio is reported as 1.06.
In the case of ATCTGGTACT, the switch fluorescence ratio is reported as 1.05.
For CATGAAAAGG, the switch fluorescence ratio was 1.04.
For AGGATGATAA, the switch fluorescence ratio was 0.944.
For AATGTCCTCC, the switch fluorescence ratio was 1.11.
In the case of TGCTCAATCT, the switch fluorescence ratio is reported as 0.982.
TTTCCGAGGT was tested, and the switch fluorescence ratio was 1.07.
CACGTTTTTA was tested, and the switch fluorescence ratio was 0.971.
CCGATCTTAA gave a switch fluorescence ratio of 1.07.
Work on ATAGCGGGCC yielded a switch fluorescence ratio of 1.03.
TGGACGGGCT was tested, and the switch fluorescence ratio was 0.998.
Work on GAGTAGAGAA yielded a switch fluorescence ratio of 1.04.
With AAGCTTGTA the switch fluorescence ratio was 1.02.
CTATCTCTCC was tested, and the switch fluorescence ratio was 1.08.
GCAGCTGGGA was tested, and the switch fluorescence ratio was 0.991.
For TCGCGGGACT, the switch fluorescence ratio was 2.28.
In the case of GGTGGTTA, the switch fluorescence ratio is reported as 0.965.
For GAAGGGATGA, the switch fluorescence ratio was 1.02.
Work on TATGTTAGGT yielded a switch fluorescence ratio of 0.969.
Work on TTTGGATTAC yielded a switch fluorescence ratio of 1.06.
AATGTCTTGA showed a switch fluorescence ratio of 1.02.
AGCATCGGGG was tested, and the switch fluorescence ratio was 1.04.
CTGTAACTCA gave a switch fluorescence ratio of 1.03.
CGCCAATTGG gave a switch fluorescence ratio of 0.96.
GTATTAAAAT was tested, and the switch fluorescence ratio was 1.01.
For CTAGAGTAG, the switch fluorescence ratio was 1.
Sequence TAAGTCAAAA has a switch fluorescence ratio of 0.952.
TACTTTGTT showed a switch fluorescence ratio of 0.984.
Sequence TAATCATACC has a switch fluorescence ratio of 0.992.
AATTTAGCGA gave a switch fluorescence ratio of 0.982.
With TCCGTTGAAA the switch fluorescence ratio was 1.11.
In the case of TAGAGTGAGA, the switch fluorescence ratio is reported as 1.03.
Work on TCCAAGTGAA yielded a switch fluorescence ratio of 1.05.
In the case of CGTTACTCTA, the switch fluorescence ratio is reported as 1.18.
Work on ACCAAGGACG yielded a switch fluorescence ratio of 1.03.
Work on CGAAGGGGGT yielded a switch fluorescence ratio of 1.01.
AGTCTGCCAC was tested, and the switch fluorescence ratio was 1.03.
With CTCAGGGGGC the switch fluorescence ratio was 1.03.
GGTCCCATTT gave a switch fluorescence ratio of 0.994.
CGAATGGGTG gave a switch fluorescence ratio of 0.978.
For GGAAGGACGG, the switch fluorescence ratio was 0.999.
Sequence GGCCACAGGA has a switch fluorescence ratio of 0.951.
With TTCTAGTATG the switch fluorescence ratio was 0.986.
CGACACGTCA gave a switch fluorescence ratio of 1.13.
